Assay results published in the supplement of paper PMC10338343.
± gives the standard deviation. The list shows a part of the results, in another mix than the full data.

Test system: MIWI (PIWIL1) piRISC loaded with L1MC piRNA (30 nt)
Assay: pre-steady-state target cleavage rate (min^-1); MIWI and MILI are mouse PIWI proteins and EfPiwi is from a freshwater sponge; tags in brackets are library labels; higher = faster piRNA-guided slicing of the target
Settings: guide: L1MC piRNA 5'p-UAACUAAAUACUAUGCAAGCUGUAGGUCCU; auxiliary factor: none (no GTSF1)
Summary of the method: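 The pre-steady-state cleavage rate was obtained by Cleave-'n-Seq with a burst-and-steady-state fit. A transcribed, DNA-blocked target RNA library (0.1 nM) was mixed with 1 nM active affinity-purified piRISC carrying one synthetic guide, with or without 500 nM GTSF1 partner protein, in HEPES–potassium acetate buffer at 33 °C for 0–8 or 0–960 min. Uncleaved targets were sequenced and normalised to depth and to weakly complementary targets, with three trials pooled and k3 capped at 0.0001 min^-1.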

| Sequence | pre-steady-state target cleavage rate |
| --- | --- |
| UCCUGGAUGAGGUUGCAUAGUAUUUUGUUA | 0.00409 ± 0.0022 |
| UCGACCUACAGCUUCCAUAGUAUUUAGUUA | 0.0044 ± 0.0022 |
| UCCUGGAUGUCCUUGCAUAGUAUUUAGUGA | 0.00937 ± 0.0023 |
| AGGACCUACAGCUUGCUUAGUAUUUAGUUA | 0.066 ± 0.015 |
| UCCUGGUAGAGCUUGCAUAGUAUUUAGAUA | 0.0153 ± 0.0049 |
| UCCUGGAUCAGCUUGCAUAGAAUUUAGUUA | 0.0291 ± 0.0088 |
| UCCUGGAUGAGCUUGCAUAGUAUAUAGUUA | 0.0202 ± 0.006 |
| UCCUCCUACAGCUUCCAUAGUAUUUAGUUA | 0.00302 ± 0.0024 |
| UGGACCAUGAGCUUGCAUAGUAUUUACAAA | 0.00423 ± 0.0026 |
| UGGACCUACAGCUUGCAUAGUAUAUAGAUA | 0.00672 ± 0.0024 |
| UCCUCCUUGUGCUUGCAUAGUAUUUAGAAA | 0.00272 ± 0.0017 |
| AGGACCAACAGCUUGCAUAGUAUUUACAAA | 0.0105 ± 0.0038 |
| UCCUGGAACAGCUUGCUUAGUAAUUAGUUA | 0.0141 ± 0.0051 |
| UCCUGGAACAGCUUGCAUAGUAGUUUAGUUA | 0.00882 ± 0.0034 |
| UCCUGGUACAGCUUGCAUAGUAUUUCGUUA | 0.0134 ± 0.0045 |
| UCCUGGAACAGCUAGCAAAGUAUUUAGUUA | 0.0102 ± 0.004 |
| UCGACCUACAGCUUGCAUUGUAUAUAGUUA | 0.0131 ± 0.003 |
| UCCUCCUACAACUUGCAUAGUAUUUAGUUA | 0.0589 ± 0.011 |
| UCGACCAACAGCUUGCAUAGUAUAUAGUUA | 0.0241 ± 0.0064 |
| UGGACCUACAGCAUGCAUAGUAUUUUGUUA | 0.0191 ± 0.0055 |

| Sequence | pre-steady-state target cleavage rate |
| --- | --- |
| UCCUCCUACAGCAUGCAUAGUAUUAAGUUA | 0.00593 ± 0.0018 |
| AGGACCAACAGCUUGCAUAGUAUUUUCAAA | 0.00778 ± 0.0043 |
| UCCUGGAUCAGCUUGCUAUGUAUUUAGUUA | 0.00412 ± 0.0018 |
| UGGACCUACAGCAUGCAUAGUAUUUAGAUA | 0.0142 ± 0.0031 |
| UCCUGGUACAGCUUGCUUAGUAUUUAGUAA | 0.0169 ± 0.0044 |
| UCCUGCUACCGCUUGCAUAGUAUUUAGUUA | 0.0571 ± 0.011 |
| UCCACGAUCAGCUUGCAUAGUAUUUUCAAA | 0.00391 ± 0.0024 |
| AGGACCUACAGCUAGCAUAGUAUAUAGUUA | 0.0163 ± 0.0043 |
| UGGACCUUGAGCUUGCAUAGUAUUUAGUAA | 0.0205 ± 0.0051 |
| UCCUGGAUGAGCUUGCAUAGUUUAUAGUUA | 0.00406 ± 0.0023 |
| AGGACCUACAGCUAGCAUAGUUUUUAGUUA | 0.0267 ± 0.0067 |
| UGGACCUACAGCUUGCAUAGUAUUUAGUCUA | 0.0139 ± 0.0033 |
| UCCUGCUACUGCUAGCAUAGUAUUUAGUUA | 0.0125 ± 0.0028 |
| UCCUGGAUCAUCUUGCAUAGUAUUUAGUUA | 0.0176 ± 0.0051 |
| UCGACCUUCAGCUUGCAUAGUAUUUAGUAA | 0.043 ± 0.011 |
| UCCACCUUCAGCUUGCAUAGUAUUUAGUAA | 0.0237 ± 0.0045 |
| UCCUGGUACAGCUUUCAUAGUAUUUAGUUA | 0.0149 ± 0.0031 |
| UCGAGGAACAGCUUGCAUAGUAUUUAGUUA | 0.057 ± 0.011 |
| UCCUGGUUCAGCUUGCAUAGUAAUUAGUUA | 0.0363 ± 0.0082 |
| UCCUGGUACAGCAUGGAUAGUAUUUAGUUA | 0.0146 ± 0.0039 |
